We go through 37 molecules from PubChem BioAssay AID1745853 (National Center for Advancing Translational Sciences (NCATS), 2022).

Structures are written as SMILES. The list shows a part of the results. Further columns of the screen follow, without active or inactive calls.

What all share (experiment): Primary Screen for Target Class Profiling of Small Molecule Inhibitors of Methyltransferases
Assay [1] addresses Glycine N-methyltransferase (Homo sapiens) (UniProt Q14749). The note with it: purified enzyme, MTase-Glo SAH luminescence; measured here: GNMT inhibition; at 40 µM; stronger effect = lower value. In short, it runs like this: (§1)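 Each enzyme was assayed with SAM and its substrate. SAH formation detected by MTase-Glo luminescence; single-point 40 uM screen[…].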
Assay [2] concerns the target Guanidinoacetate N-methyltransferase (Homo sapiens) (UniProt Q14353). The note with it: purified enzyme, MTase-Glo SAH luminescence; measured here: GAMT inhibition; at 40 µM; stronger effect = lower value. In short, it runs like this: as §1
Assay [3] deals with Histamine N-methyltransferase (Homo sapiens) (UniProt P50135). Conditions: purified enzyme, MTase-Glo SAH luminescence; measured here: HNMT inhibition; at 40 µM; stronger effect = lower value. In short, it runs like this:
as §1

Assay [4] addresses Nicotinamide N-methyltransferase (Homo sapiens) (UniProt P40261). Conditions: purified enzyme, MTase-Glo SAH luminescence; measured here: NNMT inhibition; at 40 µM; stronger effect = lower value. The gist of the method: as §1
Assay [5] addresses Phenylethanolamine N-methyltransferase (Homo sapiens) (UniProt P11086). Conditions: purified enzyme, MTase-Glo SAH luminescence; measured here: PNMT inhibition; at 40 µM; stronger effect = lower value. In short, it runs like this:
as §1
% is set by controls: 0 for no effect and ±100 for the full control effect.

With `CCCCN1C(=O)c2cc(C(=O)NCc3ccccc3OCC)nn2CC1(C)C(=O)NC1CCCC1` (configuration not stated), the activity change, negative = inhibition worked out at 7.46% in assay [1]; 1.38% in assay [2]; 4.27% in assay [3]; 1.53% in assay [4]; 4.14% in assay [5].

As for `CCN(CC1CCN(CCc2ccccc2C)CC1)C(=O)c1csc(C)n1`, the activity change, negative = inhibition in assay [1] is -0.551%; in assay [2] it was -0.616%; in assay [3], -0.865%; in assay [4], -1.39%; in assay [5] it was 0.227%.

With `CC1(C(=O)NC2CCCCCC2)Cn2c(cc3sccc32)C(=O)N1CCc1ccccc1` (configuration not stated), the activity change, negative = inhibition in assay [1] was -2.27%; in assay [2], 3.04%; in assay [3] it was 0.968%; in assay [4], -1.99%; in assay [5], -4.41%.

Turning to `Cn1c2c(c3ccccc31)C(C(=O)NCc1ccccc1)N(c1cccc(C(F)(F)F)c1)C(=O)CS2` (configuration not stated), the activity change, negative = inhibition in assay [1] is 6.02%; in assay [2], 3.06%; in assay [3], 4.92%; in assay [4] it was -2.08%; in assay [5], 0.008%.

As for `Cc1cn(CC(=O)N[C@@H]2COCC[C@@H]2OCC2CC2)c(=O)[nH]c1=O`, the activity change, negative = inhibition in assay [1] is -4.41%; in assay [2], -7.91%; in assay [3], -2.21%; in assay [4], -14.6%; in assay [5], 8.8%.

In the case of `O=C(Nc1ccccc1)N1CCN(Cc2ccc3ccccc3n2)CC1`, the activity change, negative = inhibition in assay [1] was -5.46%; in assay [2], 1.81%; in assay [3], 9.29%; in assay [4] it was -15.8%; in assay [5] it was -1.96%.

As for `COc1cc2c(cc1NS(C)(=O)=O)C(c1cccc3c1OCO3)CC(=O)N2` (configuration not stated), the activity change, negative = inhibition in assay [1] was -4.11%; in assay [2] it was -1.44%; in assay [3], -0.362%; in assay [4], -10.7%; in assay [5], 10%.

As to `CC(=O)OC[C@]12[C@H](OC(C)=O)C(=O)[C@@H]3[C@@H](OC(C)=O)[C@@]14O[C@@]3(C)COC(=O)c1cccnc1[C@@H](C)[C@H](C)C(=O)O[C@@H]([C@H](O)[C@@H]2OC(C)=O)[C@]4(C)O`, the activity change, negative = inhibition was 1.91% in assay [1]; 1.17% in assay [2]; 4.47% in assay [3]; -10.5% in assay [4]; -2.41% in assay [5].

As for `Cc1cc(F)ccc1NC(=O)c1cc2n(n1)CC(C)(C(=O)NC1CCCCCC1)N(C)C2=O` (configuration not stated), the activity change, negative = inhibition in assay [1] is 0.293%; in assay [2], 2.31%; in assay [3] it was 0.368%; in assay [4], -0.241%; in assay [5], -1.59%.

On to `COc1cc(CCC2=NN=C(NC(=O)c3ccc(N4C[C@@H](C)N[C@@H](C)C4)cc3)C2)cc(OC)c1`, for which the activity change, negative = inhibition was -8.76% in assay [1]; 9.55% in assay [2]; -35.6% in assay [3]; -14.4% in assay [4]; -8.86% in assay [5].

With `CCOC(=O)c1ccc2c(c1)C1C=CCC1C(c1ccc(OC(C)=O)cc1OC(C)=O)N2` (configuration not stated), the activity change, negative = inhibition in assay [1] was -8.61%; in assay [2], 1.71%; in assay [3] it was -1.61%; in assay [4], -6.27%; in assay [5], -20.2%.

Turning to `CCn1cc(C(=O)N2CCc3cc(S(=O)(=O)NCC4CCCO4)ccc3C2)cn1` (configuration not stated), the activity change, negative = inhibition in assay [1] is -5.37%; in assay [2], 1.95%; in assay [3], -0.105%; in assay [4] it was 0.049%; in assay [5], 11.9%.

As for `Cc1ccc(NC(=O)c2ccc(CN3CC[C@H](N(C)C)C3)c(C(F)(F)F)c2)cc1Nc1nccc(-c2cncnc2)n1`, the activity change, negative = inhibition in assay [1] is -8.39%; in assay [3], -26.3%.

`COc1ccc(Cn2c(C3CCN(C(=O)C4(c5ccccc5)CC4)CC3)n[nH]c2=O)cc1`: the activity change, negative = inhibition in assay [1] was -3.65%; in assay [2], -3.39%; in assay [3] it was -1.75%; in assay [4], -2.13%; in assay [5], 1.97%.

As to `CC(C)CCN1CC(C(=O)NCCc2ccncc2)C2(CCOCC2)C1` (configuration not stated), the activity change, negative = inhibition was -9.73% in assay [1]; -16.7% in assay [2]; -5.1% in assay [3]; -14.8% in assay [4]; -10.6% in assay [5].

As for `Cc1ccccc1Cn1nc2n(C)c(=O)c3ccc(C(=O)NC4CCCC4)cc3n2c1=O`, the activity change, negative = inhibition in assay [1] is -1.3%; in assay [2], 1.82%; in assay [3], -1.44%; in assay [4], -7.76%; in assay [5] it was -3.98%.

For `Cc1ccc(NC(=O)N2CCn3cccc3C2C(C)C)c(Cl)c1` (configuration not stated), the activity change, negative = inhibition in assay [1] is 5.06%; in assay [2], 0%; in assay [3], -1.4%; in assay [4], 0.103%; in assay [5] it was 3.3%.

As for `Cc1ccc(F)c(C(=O)NC(C)c2cnn(-c3ccccc3)c2C)c1Cl` (configuration not stated), the activity change, negative = inhibition in assay [1] was 0.148%; in assay [2] it was -4.71%; in assay [3] it was -3.37%; in assay [4] it was -9.53%; in assay [5], -7.38%.

As for `CNC(=O)c1cc(C2CC2)nc2onc(C3CCN([S+](=O)([O-])c4ccccc4)C3)c12` (configuration not stated), the activity change, negative = inhibition is -2.25% in assay [1]; -1.18% in assay [2]; 1.04% in assay [3]; -3.54% in assay [4]; -20.2% in assay [5].

On to `CC(=O)NC[C@H]1CN(c2ccc(N3CCSCC3)c(F)c2)C(=O)O1`, for which the activity change, negative = inhibition was -5.04% in assay [1]; -5.32% in assay [2]; 6.75% in assay [3]; -18.5% in assay [4]; 0.864% in assay [5].

`Cc1ccc(CNC(=O)C2(C)Cn3cnc(C(=O)NCCc4ccccc4)c3C(=O)N2C2CC2)cc1` (configuration not stated): the activity change, negative = inhibition is -0.53% in assay [1]; 1.73% in assay [2]; -0.135% in assay [3]; -7.13% in assay [4]; -4.21% in assay [5].

As for `CC(C)OCCCN1C(=O)c2cc3sccc3n2CC1(C)C(=O)NC1CCCCCCC1` (configuration not stated), the activity change, negative = inhibition is -3.96% in assay [1]; 4.87% in assay [2]; -5.73% in assay [3]; -3.13% in assay [4]; -1.59% in assay [5].

With `CC(C)CCN1C(=O)c2cc3sccc3n2CC1(C)C(=O)NC1CCCCC1C` (configuration not stated), the activity change, negative = inhibition in assay [1] was 1.51%; in assay [2] it was 0.161%; in assay [3] it was 2.41%; in assay [4], 2.78%; in assay [5] it was -1.14%.

Consider `CCC[C@@H]1CN(C(=O)CNS(=O)(=O)c2cccs2)C[C@H]1NC(C)=O`, for which the activity change, negative = inhibition in assay [1] is -4.48%; in assay [2], -7.2%; in assay [3] it was -2.41%; in assay [4], -4.36%; in assay [5], -6.35%.

As to `O=S(=O)(NCC1CC1)c1ccc(Nc2nccc(N3CCCc4cc(O)ccc43)n2)cc1`, the activity change, negative = inhibition in assay [1] is -13.3%; in assay [2], -13.5%; in assay [3], -42.8%; in assay [4] it was -41.8%; in assay [5], -20.9%.

Consider `COc1ccc(-c2cc3n(n2)CC(C)(C(=O)NCc2ccccc2OC)N(CCc2ccco2)C3=O)cc1` (configuration not stated), for which the activity change, negative = inhibition was found to be 4.11% in assay [1]; 3.44% in assay [2]; 8.89% in assay [3]; 12.3% in assay [4]; 2.26% in assay [5].

In the case of `C=CCn1c(=O)c2ccc(C(=O)NC(C)C)cc2n2c(=O)n(CC(=O)Nc3ccc(C)cc3)nc12`, the activity change, negative = inhibition in assay [1] was 5.97%; in assay [2], 0.376%; in assay [3] it was 6.19%; in assay [4], 5.83%; in assay [5], 7.63%.

As for `CC(C)CCn1c(=O)c2ccc(C(=O)NCC(C)C)cc2n2c(=O)n(Cc3ccc(F)cc3)nc12`, the activity change, negative = inhibition in assay [1] was determined as 1.69%; in assay [2], 0.083%; in assay [3] it was 4.57%; in assay [4], 3.49%; in assay [5], 1.67%.

Turning to `Cc1cc2c(c(=O)n(-c3ccc(F)cc3)c(=O)n2CC(=O)Nc2cccc(C#N)c2)n1C`, the activity change, negative = inhibition in assay [1] is -4.03%; in assay [2], -3.65%; in assay [3], -5.66%; in assay [4] it was -8.58%; in assay [5] it was -9.7%.

Take `COc1ccc(NS(=O)(=O)c2ccc3c(c2)n(C)c(=O)n3C)cc1`: the activity change, negative = inhibition in assay [1] was -4.2%; in assay [2], 3.93%; in assay [3], 6.4%; in assay [4], 3.87%; in assay [5] it was -0.815%.

As for `CC1CCCCC1NC(=O)C1(C)Cn2c(nc3ccccc32)C(=O)N1Cc1cccs1` (configuration not stated), the activity change, negative = inhibition in assay [1] was found to be 4.39%; in assay [2], 0%; in assay [3], 8.89%; in assay [4] it was 6.88%; in assay [5], 3.52%.

Consider `CN1c2cccnc2CN(C(=O)Nc2cccc(C(F)(F)F)c2)CC[C@H]1CO`, for which the activity change, negative = inhibition in assay [1] was -0.286%; in assay [2] it was 1.54%; in assay [3] it was 1.79%; in assay [4], -5.15%; in assay [5], 3.82%.

For the molecule `CCCC1c2ccc(C)n2CCN1C(=O)Nc1ccc(Br)c(C)c1` (configuration not stated), the activity change, negative = inhibition in assay [1] is -0.712%; in assay [2] it was 0.781%; in assay [3] it was -7.91%; in assay [4] it was 1.42%; in assay [5], -2.08%.

For `COc1ccc(CN2CCCC3(C2)C(=NC2CCCCC2)NC(=O)N3c2cccnc2)cc1` (configuration not stated), the activity change, negative = inhibition was -9.54% in assay [1]; -3.23% in assay [2]; -2.26% in assay [3]; -21.6% in assay [4]; 1.25% in assay [5].

On to `c1coc(-c2noc(CN3CCCC3c3nc(-c4ccncc4)no3)n2)c1` (configuration not stated), for which the activity change, negative = inhibition in assay [1] is -5.42%; in assay [2] it was -7.67%; in assay [3], -3.27%; in assay [4] it was -6.96%; in assay [5], 0.694%.

With `Cc1ccc(N2C(=O)c3cc4sccc4n3CC2(C)C(=O)NC2CCCC(C)C2C)cc1C` (configuration not stated), the activity change, negative = inhibition in assay [1] is -0.575%; in assay [2] it was 4.9%; in assay [3] it was -0.296%; in assay [4], -1.06%; in assay [5], -1.02%.

In the case of `CCc1ccc(CN2C(=O)c3sccc3-n3cccc3C2C(=O)NC2CCCCCC2)cc1` (configuration not stated), the activity change, negative = inhibition was -1.96% in assay [1]; 0.797% in assay [2]; 0.264% in assay [3]; -3.53% in assay [4]; 0.228% in assay [5].
